Each structure is given as a SMILES string.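 Where inhibition never reached the appropriate level, the endpoint shown equals the highest concentration tested. Otherwise, values were interpolated linearly from a five-concentration, 48-hour dose response in 96-well plates. Here, GI50 denotes the concentration required for 50% inhibition of growth. TGI marks complete inhibition of growth.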

In the test the test system is NCI-H322M lung. Kind of test: growth of human tumour cells (NCI), 48 h.
The compound `O=[N+]([O-])c1ccc(Oc2c(Cl)cc(S(=O)(=O)/N=C(\NO)Nc3ccc(Cl)cc3)cc2Cl)cc1` gave a TGI of 22.5 µM.
On the same count and under the same terms, next, `CCc1cc(Cc2cc(CC)c(NC(=O)C(=O)Cc3ccccn3)c(CC)c2Cl)c(Cl)c(CC)c1NC(=O)C(=O)Cc1ccccn1`: over 100 µM.
On the same count and under the same terms, next, `N#CC12C(=O)N=C(N)C1(C#N)C(c1ccco1)NC1=C2CCCC1` (configuration not stated): over 100 µM.
Turning to `CN(C)c1ccc(S(=O)Nc2ccccc2)cc1` (configuration not stated), the TGI is over 100 µM.
On the same count and under the same terms, to `CC(C)(C)OC(=O)N[C@H]1CC2(C=C(Cl)C(=O)C(Cl)=C2)OC1=O` belongs over 66.4 µM; to `CCOC(=O)c1ccc(NCC#CCN2CCOCC2)cc1`, over 100 µM.
Same read-out and setting: next, `C=C(Br)C(C)(Br)CCC(Br)C(C)(C)Cl` (configuration not stated): 34.4 µM.
For `[Cl-].[La+3].[O-]/N=C(\c1ccccc1)c1ccccn1.[O-]/N=C(\c1ccccc1)c1ccccn1.[O-]/N=C(\c1ccccc1)c1ccccn1`, the GI50 was 44 µM and the TGI is over 100 µM.
As for `Cc1cn(C2CC(O)C(CO)O2)c(=O)[nH]c1=O` (configuration not stated), the TGI was over 3870 µM.
On the same count and under the same terms, to `O=c1c2sc(=S)n(-c3ccc(F)cc3)c2ncn1/N=C/c1ccc(F)cc1F` belongs 60 µM; to `C=CCSc1nnc2cc(CN3CCCC3)c(-c3ccc(Cl)cc3)nn12`, 32.8 µM.
Same read-out and setting: to `O=[N+]([O-])C(/C=C(\Cl)n1nnc2ccccc21)=C(/Cl)n1nnc2ccccc21` belongs over 100 µM; to `CC1OC(OC2C(OC(=O)[C@]34CCC(C)(C)C[C@H]3C3=CC[C@@H]5[C@@]6(C)CC[C@H](OC7OC(C(=O)O)C(O)C(O)C7O)C(C)(C)[C@@H]6CC[C@@]5(C)[C@]3(C)C[C@H]4O)OCC(O)C2O)C(O)C(OC2OCC(O)(CO)C2O)C1OC1OCC(O)C(O)C1O` (some centres not stated), 10.7 µM; to `NS(=O)(=O)c1cc(Cl)c(NC(=S)NC(=O)Nc2ccc(Cl)c(Cl)c2)c(Cl)c1`, over 100 µM.
Same read-out and setting: next, `Cc1cc2c3c(nc4ccccc42)C(=O)c2ccccc2-c3n1`: 17.2 µM; `O=C(/C=C/c1ccc2c(c1)OCO2)CC(=O)C(=O)c1c[nH]c2ccccc12`: over 100 µM.
Regarding `CCOC(=O)C1=C(C)C2C=C(c3cccs3)CC(c3ccc(Cl)cc3)=C2OC1=O` (configuration not stated), the TGI is over 100 µM.
For the compound `CN1CCN(CCCn2c(=O)c3sc4ncccc4c3n3nnc(-c4ccccc4)c23)CC1`, the GI50 is 6.16 µM and the TGI is 12.9 µM.
The like results for `COc1cc(/C=C/c2cc(O)c(C(C)=O)c(O)c2)cc2c1O[C@]1(C)CC[C@@H](O)C(C)(C)[C@H]1C2` were, in that order, 9.23 µM and 75 µM.

For the origin of these results see PubChem BioAssay (NCI).
